Among all 16,000 compounds or so, about 120 (0.75%) were called active. About 4% were inconclusive and are not listed. The call rests on the fitted dose curve; in most records, active means well fitted inhibition curve with a large enough effect; inconclusive means small, poorly fitted or top-dose-only effect; inactive means no such curve, though single readings can be large or run the other way. The list shows a part of the results.

The test concerns the target Rap guanine nucleotide exchange factor 3 (Homo sapiens) (UniProt O95398). Description: Validation qHTS for antagonist of cAMP-regulated guanine nucleotide exchange factor 3 (EPAC1). Further: nearly all actives have a fitted effect of over 75% in size. The settings on record: EPAC1 Rap1B-BODIPY-GDP exchange, fluorescence; series mostly up to 150 µM; activity change, negative = inhibition: at the top concentration. From the text: Assay Provider (PI): Xiaodong Cheng Ph.D.
Chain of UniProt O95398 (O95398 whole entry, looked up): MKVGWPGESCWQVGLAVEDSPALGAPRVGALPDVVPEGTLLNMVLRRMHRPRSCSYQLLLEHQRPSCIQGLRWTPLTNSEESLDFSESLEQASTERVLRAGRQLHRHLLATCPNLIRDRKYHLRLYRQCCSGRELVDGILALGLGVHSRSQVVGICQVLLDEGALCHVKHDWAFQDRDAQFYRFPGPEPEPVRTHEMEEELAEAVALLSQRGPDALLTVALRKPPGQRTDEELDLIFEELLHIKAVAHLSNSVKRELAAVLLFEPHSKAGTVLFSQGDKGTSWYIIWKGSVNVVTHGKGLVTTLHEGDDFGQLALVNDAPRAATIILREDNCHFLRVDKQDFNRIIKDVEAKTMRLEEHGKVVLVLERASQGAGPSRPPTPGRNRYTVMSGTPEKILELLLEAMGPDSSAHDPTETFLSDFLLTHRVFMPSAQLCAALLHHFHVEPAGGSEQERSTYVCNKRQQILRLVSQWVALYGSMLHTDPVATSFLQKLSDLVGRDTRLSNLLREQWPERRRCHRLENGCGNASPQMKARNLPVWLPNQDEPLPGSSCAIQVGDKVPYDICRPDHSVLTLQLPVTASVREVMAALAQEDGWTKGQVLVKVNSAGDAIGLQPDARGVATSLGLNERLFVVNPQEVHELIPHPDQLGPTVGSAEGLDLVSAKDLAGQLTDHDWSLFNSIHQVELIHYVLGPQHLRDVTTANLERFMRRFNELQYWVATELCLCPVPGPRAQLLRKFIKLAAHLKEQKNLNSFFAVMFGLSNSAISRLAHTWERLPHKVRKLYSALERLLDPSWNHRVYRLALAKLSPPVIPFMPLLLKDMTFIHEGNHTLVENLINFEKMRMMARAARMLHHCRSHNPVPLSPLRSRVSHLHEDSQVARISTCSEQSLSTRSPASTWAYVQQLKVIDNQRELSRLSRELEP
The University of Texas Medical Branch, […], TX
In multi-cellular eukaryotic organisms, the effects of cAMP are transduced by two ubiquitously-expressed intracellular cAMP receptors, the classic protein kinase A/cAMP-dependent protein kinase (PKA/cAPK) and the more recently discovered exchange protein directly activated by cAMP/cAMP-regulated guanine nucleotide exchange factor (EPAC/cAMP-GEF). Both PKA and EPAC are ubiquitously expressed in all tissues, and an increase in intracellular cAMP levels will lead to the activation of both PKA and EPAC. Therefore, careful dissections of the individual role and relative contribution of EPAC and PKA within the overall cAMP signaling in various model systems are critical for further elucidating the mechanism of cAMP signaling. To date no EPAC-specific antagonists and agonist, as well as isoform-specific agonists have been reported, and developing EPAC-specific pharmacological probes to determine the physiological functions that EPAC play in the overall cAMP-mediated signaling remains a major challenge within the research field. Furthermore, identified regulators of EPAC may lead to new mechanism-based therapeutic strategies specifically targeting the EPAC / cAMP-signaling components as EPAC has been implicated to play important roles in major human pathological conditions such as diabetes, heart disease, and cancer.
This qHTS will be used to screen the Molecular Libraries Small Molecule Repository (MLSMR) as a concentration-titration series using the NCGC unique quantitative screening (qHTS) platform to find activators for EPAC1. In addition, this assay will also be used as a counterscreen for the EPAC2 qHTS. This fluorescent based assay is developed and validated for EPAC1 that measures exchange using EPAC effector Rap1 complex with BODIPY-GDP, a GDP analog with a tethered fluorophores. Activators are identified by monitoring the change in fluorescence signal as the exchanged free BODIPY-GDP has a reduced fluorescence compared to Rap1-bound BODIPY-GDP. Increase in signal (activation) is the desired outcome for the EPAC1 agonist while no activity in this assay is desired for the EPAC2 agonist counterscreen.
[1] de Rooij, J., Zwartkruis, F. J., Verheijen, M. H., Cool, R. H., Nijman, S. M., Wittinghofer, A., and Bos, J.L. (1998) Nature 396, 474-477.
Briefly, three uL of reagents (100 nM EPAC1, 250 nM RAP1B-BODIPY-GDP, 50 uM GDP) were dispensed into a 1536-well Greiner black solid-bottom medium binding assay plate. Controls and test compounds (23 nL) were transferred to the plate via a Kalypsys pin tool equipped with a 1536-pin array. The plates were centrifuged at 1,000 rpm for 15 seconds followed by 5 minute incubation at room temperature. The assay plates were read at 5 minute intervals for 30 minutes in the ViewLux plate reader using 480nm excitation and 540nm emission filters. The results were normalized to the […] positive control ATA and DMSO.
(In general: Quantitative high-throughput screening tests each substance at several concentrations.)
With `CCC(=O)OC(OP(=O)(CCCCc1ccccc1)CC(=O)N1C[C@H](C2CCCCC2)C[C@H]1C(=O)O)C(C)C` (stereo not given in full), the “activity change, negative = inhibition” value is inactive: -1.26%. The same measure for `Clc1ccc2c(c1)N=C(N1CCNCC1)c1ccccc1N2`: “inactive”. For `Cc1cc(N(C)C)c(C)cc1/C=C/c1ccnc2ccccc12` the value was inactive: 42.8%; for `CC(=O)OC/C=C(C)/C=C/C=C(C)/C=C/C1=C(C)CCCC1(C)C`, “inactive”; for `O=C(c1cccc(F)c1F)N1CCOc2ccc(CN3CCN(Cc4ccccn4)CC3)cc2C1`, inactive: 8.62%. For `Cn1c(C2CCC2)nc2cc(C(=O)N3CCOc4ccccc4C3)cc(NC(=O)C3CCCO3)c21` (stereo not given) the value was inactive: 2.61%; for `O=C(c1ccc2c(c1)OCO2)N(Cc1cc2ccc(F)cc2nc1N1CCC(O)CC1)CC1CCCO1` (stereo not given), inactive: 2.55%. Regarding `O=C(Nc1ccccc1)[C@@H]1CC=C[C@@H]2CCN(C3CC3)C(=O)[C@@H]21`, the “activity change, negative = inhibition” value is inactive: 5.95%.

`COc1ccc(CCN(C)CCc2ccc(OC)c(OC)c2)cc1OC`: the activity change, negative = inhibition result was “inactive”. The same measure for `CC1(CN2CCC(n3c(=O)[nH]c4ccccc43)CC2)OCc2ccccc2-n2cccc21` (stereo not given): inactive: -4.28%. The same measure for `CC(CCc1ccc(O)cc1)N1CCOc2c(O)cc(-c3nc4ccccc4s3)cc2C1` (stereo not given): inactive: -5.36%; for `O=c1c(-c2ccccc2)nc2cnc(N3CCNCC3)nc2n1Cc1ccc(F)cc1`: inactive: 21.8%. `Cc1cc(C)n(CC(=O)N2CCC(n3c(C(C)C)nc4cccnc43)CC2)n1`: the “activity change, negative = inhibition” value was inactive: 14.2%.

Take `COc1ccc(Oc2ncc3nc(-c4ccc(OC)cc4)c(=O)n(C)c3n2)cc1`: the “activity change, negative = inhibition” value is inactive: 7%. The same measure for `CC(C)[C@@H]1CC[C@@H](C)C[C@H]1O`: inactive: 18.8%. `COc1ccccc1-c1ccnc(-n2ncc(C(=O)NCCc3cccnc3)c2C)n1`: the “activity change, negative = inhibition” value was inactive: 13.8%. For `CC(C)Oc1cccc(-n2c(CCc3c[nH]c4ccc(Br)cc34)nc3ccccc3c2=O)c1` the value was inactive: -14.5%; for `Cc1cccc(-c2[nH]c(C(C)(C)C)nc2-c2ccc3nccnc3c2)n1`, inactive: 12.9% [at 75.8 µM]. Regarding `COc1ccc(O)c(CN2CCC3(CCC(CNC(=O)c4ccccc4)O3)CC2)c1` (stereo not given), the “activity change, negative = inhibition” value is inactive: 2.54%. The same measure for `CC[C@@]1(O)C(=O)OCc2c1cc1n(c2=O)Cc2cc3cc(O)ccc3nc2-1`: “inactive”; for `COCCn1c(=O)c(-c2cccs2)nc2cnc(Oc3ccccc3)nc21`: inactive: 0.488%.

Take `Cc1ccccc1/C=C/C1=NCCN1`: the “activity change, negative = inhibition” value is inactive: 5.55% [at 75.8 µM]. For `CCCCCCC(=O)O[C@H]1CC[C@H]2[C@@H]3CCc4cc(O)ccc4[C@H]3CC[C@]12C` the value was inactive: -27.8%.

Consider `O=C(Nc1cccc(F)c1)N1CCC2(CC1)CCN(C(=O)c1ccncc1)CC2`, for which the “activity change, negative = inhibition” value was inactive: 23.2%.

In the case of `CNc1ncnc2ccc(-c3ccc4c(c3)OCO4)cc12`, the “activity change, negative = inhibition” value is inactive: 9.04%.

With `COc1ccc(CN2CCCC(n3cc(C(=O)N4CCCCC4)nn3)C2)c(OC)c1C` (stereo not given), the “activity change, negative = inhibition” value was inactive: 4.78%. `CC(NC(=O)C1CCOCC1)c1nnc2n1CCN(Cc1ccc3ccccc3c1)CC2` (stereo not given): the “activity change, negative = inhibition” value was inactive: 13.4%. The same measure for `CCC1(C2CCN(Cc3c(C)[nH]c4ccccc34)CC2)NC(=O)N(Cc2ccc3c(c2)OCO3)C1=O` (stereo not given): inactive: -9.73%; for `CCC(c1ccc(O)cc1)C(CC)c1ccc(O)cc1` (stereo not given): inactive: -2.15%; for `NC1(c2ccc(-c3nc4ccn5c(=O)[nH]nc5c4cc3-c3ccccc3)cc2)CCC1`: inactive: -17.8%. The same measure for `COc1cc(OC)c2c(=O)c(OC)c(-c3ccc(OC)c(OC)c3)oc2c1`: inactive: 19.1%. For `CN1C2CC(OC(=O)C(CO)c3ccccc3)C[C@@H]1[C@H]1OC21` (stereo not given in full) the value was inactive: 10.2%; for `COc1ccccc1CNc1ncncc1-c1ccccc1OC`, inactive: -9.04%. Consider `O=C(NCc1nnc2n1CCN(Cc1ccnc3ccccc13)CC2)c1cccc(F)c1`, for which the “activity change, negative = inhibition” value is inactive: 17.5%. With `COc1cccc(-c2ccc3ncnc(N4CCN(C)CC4)c3c2)c1`, the “activity change, negative = inhibition” value is inactive: 11.3%. The same measure for `COc1cc(=O)n2c(c1C(=O)NC(C)c1ccco1)CCN(C(=O)c1cn3ccc(C)cc3n1)CC2` (stereo not given): inactive: 3.82%; for `CCNc1ncc2nc(-c3ccc(OC)cc3)c(=O)n(C)c2n1`: inactive: -15.7%; for `O=c1c(CCc2ccccc2)nc2cnc(N3CCOCC3)nc2n1C1CC1`: inactive: 14.2%. The same measure for `CC(C)NC(=O)N1CCCC2(CCN(C(=O)c3ccco3)CC2)C1`: inactive: 18.4%; for `CC(=O)NNC(=O)N1Cc2ccccc2Oc2ccc(Cl)cc21`: “inactive”.

Consider `COc1ccccc1C1CN(Cc2cccc(C)n2)Cc2ccccc2O1` (stereo not given), for which the “activity change, negative = inhibition” value is inactive: -10.8%. The same measure for `CC(=O)NCCNC(=O)c1cnn(-c2nccc(-c3cc(C)sc3C)n2)c1C`: inactive: 6.55%; for `CNC[C@H](O)c1cccc(O)c1`: “inactive”; for `Cc1c(C(=O)NCCc2ccccn2)cnn1-c1nccc(-c2cccs2)n1`: inactive: 17.3%. The same measure for `N=C(N)SCCc1cnc[nH]1`: “inactive”; for `c1csc(CNc2ccnc(-c3ccoc3)n2)c1`: inactive: 0.924%; for `C[C@]12CCC(=O)C=C1CC[C@H]1[C@@H]3CC[C@](O)(C(=O)CO)[C@@]3(C)C[C@H](O)[C@@]12F`: “inactive”. Take `CSc1nc(N)c2ncn([C@H]3O[C@H](COP(=O)(O)OP(=O)(O)O)[C@@H](O)[C@@H]3O)c2n1`: the “activity change, negative = inhibition” value is inactive: 1.41%. For `CN1C(=O)CC(C)(c2ccccc2)C1=O` (stereo not given) the value was inactive: -3.75%. The same measure for `Cc1c(C(=O)NCC(C)C)sc2ncnc(NCC3CCCO3)c12` (stereo not given): inactive: 7.47%.

The record behind these values is PubChem BioAssay AID1645882 (National Center for Advancing Translational Sciences (NCATS), 2021).
